Measured values taken from PubChem BioAssay AID686971 (National Center for Advancing Translational Sciences (NCATS), 2013).
Among all 360,000 compounds or so, about 7,500 (2.1%) were called active. Inconclusive results, whose numbers are uncertain, are shown with a selection of clear calls. Calls follow the shape of the dose curve; as a rule, active = well fitted cell-killing curve with a large enough effect; inconclusive = small, poorly fitted or top-dose-only effect, or effect the other way, or another doubt; inactive = no such curve, though single readings can be large or run the other way. Potencies of inconclusive entries are left out as doubtful fits.

Test: qHTS for induction of synthetic lethality in tumor cells producing 2HG: qHTS for the HT-1080-IDH1KD cell line;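 as to activity, negative = toxicity: 0% = DMSO wells and -100% = cell-free medium wells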
Details: HT-1080 IDH1 knockdown viability, ATP luminescence, 48 h; activity, negative = toxicity: at 46.1 µM (top of the series) unless noted
Summary of the method: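 IDH1KD HT-1080 cells, 750/well, RPMI + 5% FBS; compound pinned after 2 h settling; 48 h, 37 °C; CellTiter-Glo luminescence; % activity normalised to DMSO and no-cell wells; curves fitted, classed by r2 and efficacy.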
Potency is read from the fitted curve at half-maximal effect; tags tell the direction and shape of the fitted curve.

SMILES | Potency | activity, negative = toxicity
Cc1ccc(S(=O)(=O)Oc2ccccc2/C=N/N=C(N)N)cc1 | inconclusive [cytotoxic, single point] | –
Cn1cnc([N+](=O)[O-])c1NCc1ccccc1 | inactive | –
CSCCC1NC(=O)N(CC(=O)Nc2c(Cl)cc(Cl)cc2Cl)C1=O (stereo not given) | – | inconclusive: -31% [cytotoxic]
CCOc1ccc2nc(SC3CC(=O)N(c4ccc(OC)cc4)C3=O)sc2c1 (stereo not given) | inconclusive [cytotoxic, single point] | –
CCCC(=O)N1CCC1(C)C(=O)Nc1cccc(OC(C)C)c1 (stereo not given) | inactive | –
Cc1ccc(S(=O)(=O)Nc2ccc3c(c2)CC(=O)N([C@H](C)CO)C[C@@H](C)[C@H](CN(C)Cc2ccc(-c4ccccc4)cc2)O3)cc1 | inconclusive [cytotoxic, single point] | –
Cc1ccc(/C=C/C(=O)Nn2cnnc2)cc1 | inconclusive [cytotoxic, single point] | –
Cc1ccc2nc(N3CCN(Cc4ccc(F)cc4)C3=O)c(C)cc2c1 | inconclusive [cytotoxic, single point] | –
COC(=O)c1c(NC(=O)CN2CCN(Cc3ccc4c(c3)OCO4)CC2)sc(C)c1C | inconclusive [cytotoxic, partial curve] | –
Cc1nccn1CCC(=O)NC1CCCc2c1cnn2-c1ccc(C(C)(C)C)cc1 (stereo not given) | inactive | –
COc1ccc(CCN2Cc3c(N)cccc3C2=O)cc1OC | inconclusive [rising, single point] | –
Cc1nnc(SCc2cc(=O)[nH]c(/N=C(\N)Nc3ccccc3Sc3ccccc3)n2)s1 | inactive | –
Cc1cccc(N2C(=O)c3cccc4c(N5CCCCC5)c([N+](=O)[O-])cc(c34)C2=O)c1C | inactive | –
COc1ccc(-c2[nH]ncc2CN2CCC(C(=O)N3CCOCC3)CC2)c(F)c1 | inactive | –
CCOc1cc(/C=C2\COc3ccccc3C2=O)cc(Br)c1OCC(=O)N(C)C | active: 13 µM | –
CCn1c(SC(C)C(=O)NC2CCCC2)nc2cc(S(N)(=O)=O)ccc21 (stereo not given) | inactive | –
O=[N+]([O-])c1cc(Cl)cc2c1nc(NCCO)c1ccccc12 | inconclusive [cytotoxic, partial curve] | –
COc1cc(/C=C2\CCc3c2nc2ccccc2c3C(=O)O)cc(OC)c1OC | inconclusive [cytotoxic, single point] | –
O=C(Nc1ccc(F)cc1)N1CCC(c2nc3c(nnn3Cc3cccc(Cl)c3)c(=O)[nH]2)CC1 | inconclusive [cytotoxic, single point] | –
O=C(C=Cc1ccccc1)c1ccc([N+](=O)[O-])cc1 | inconclusive [cytotoxic, single point] | –
CCc1cccc2c(C(=O)CCl)c[nH]c12 | active: 14.6 µM | –
Nc1nc(Cl)nc2c1ncn2C1CC(O)C(CO)O1 (stereo not given) | inconclusive [cytotoxic, full curve] | –
OC(c1ccc(Cl)c(Cl)c1)c1ncc(-c2ccc(C(F)(F)F)cc2)[nH]1 (stereo not given) | inconclusive [cytotoxic, single point] | –

SMILES | Potency | activity, negative = toxicity
CN1CCN(C2=Cc3cc(Cl)ccc3Sc3cc(F)ccc32)CC1 | inconclusive [cytotoxic, single point] | –
O=C(Nc1ccc(C(F)(F)F)cc1)c1cccnc1N1CCOCC1 | inconclusive [cytotoxic, single point] | –
CC(C)CC[n+]1ccccc1/C=C/c1ccc(N(C)C)cc1 | active: 23.1 µM | –
[N-]=[N+]=NC[C@H](c1ccccc1)N1CCN(Cc2ccccc2)CCC1=O | inactive | –
CC(C)Oc1ccc(F)cc1-c1cc(C(=O)Nc2ccc(C(C)(C)C)cc2)[nH]n1 | active: 18.4 µM | –
CC1(C)CC(=O)C2=C(C1)OC(N)=C(C#N)C2C#Cc1ccccc1 (stereo not given) | inconclusive [cytotoxic, single point] | –
Cc1nc(N2CCN(C(=O)c3cccs3)CC2)c2c3c(sc2n1)CCCC3 | inconclusive [cytotoxic, single point] | –
COc1cc(Nc2ncc3c(n2)CCN(C(=O)Nc2ccc(C(C)C)cc2)C3)cc(OC)c1OC | active: 18.4 µM | –
O=C(C1CCCCC1)N1C[C@@H](n2cc(-c3ccc(F)cc3)nn2)[C@H](O)C[C@@H]1c1ccc(Cl)cc1 | inconclusive [cytotoxic, single point] | –
O=C(Nc1ccc2oc(-c3ccccc3F)nc2c1)c1ccc([N+](=O)[O-])o1 | inactive | –
COc1ccccc1CNc1cc(-c2ccccc2)ccc1OC | inactive | –
COC(=O)c1scc(C)c1NC(=O)/C=C/C(=O)O | inactive | –
CC(=O)c1sc2c(c1OC(=O)c1ccc(Cl)cc1)c(=O)n(-c1ccccc1)c(=S)n2-c1ccccc1 | inconclusive [cytotoxic, full curve] | –
COc1ccc2cc(OCC(=O)NNC(=O)Nc3ccc(C(C)=O)cc3)ccc2c1 | inconclusive [cytotoxic, single point] | –
CCC(c1nnnn1C1CCCCC1)N(Cc1ccco1)Cc1cc2ccc(OC)cc2[nH]c1=O (stereo not given) | inconclusive [cytotoxic, single point] | –
Nc1nc(N)c(N=O)c(Nc2cccc(Cl)c2)n1 | inconclusive [cytotoxic, single point] | –
CC(C)(C)C(=O)N1CCN(C(=O)c2ccco2)CC1 | inactive | –
CCCSc1ccc2nc(NC(=O)OC)[nH]c2c1 | active: 0.731 µM | –
O=C(Cn1ccc(NC(=O)OCc2ccccc2)nc1=O)NCCCc1ccccc1 | inconclusive [cytotoxic, single point] | –
CC(C)C[C@H]1CNC(=S)N1C[C@H]1CCCN1C[C@H](CC(C)C)N1C[C@H](Cc2ccc(O)cc2)N(CC2CCCCCC2)C1=S | inconclusive [cytotoxic, single point] | –
O=C(N/N=C/c1cn(-c2ccccc2)nc1-c1cccnc1)c1ccccc1 | inconclusive [cytotoxic, single point] | –
CN(c1ccc(C(=O)Nc2ccc3c(c2)OCO3)cc1)S(C)(=O)=O | inconclusive [cytotoxic, full curve] | –
